Assay results from paper PMC6919601, “Identification of Plasmodium dipeptidyl aminopeptidase allosteric inhibitors by high throughput screening” (PLoS ONE, 2019).
“And” between values parts separate entries of the source, which are not always exact repeats. Equal values may be shown once. Out of some 110,000 compounds screened, about 230 (0.21%) showed an effect of 50% or more. This is one part of the list.

Biological target: DPAP1 (Plasmodium falciparum, UniProt Q8IIJ9)
Assay: primary screen, percent inhibition; read by cleavage of a fluorogenic dipeptide substrate; higher = more effect of the substance
Set-up: species or system P. falciparum D10 trophozoite lysates; single well
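Further: 30 min substrate incubation versus DMSO and 10 µM JCP410 controls.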

Chain of DPAP1 (Q8IIJ9 whole entry, looked up): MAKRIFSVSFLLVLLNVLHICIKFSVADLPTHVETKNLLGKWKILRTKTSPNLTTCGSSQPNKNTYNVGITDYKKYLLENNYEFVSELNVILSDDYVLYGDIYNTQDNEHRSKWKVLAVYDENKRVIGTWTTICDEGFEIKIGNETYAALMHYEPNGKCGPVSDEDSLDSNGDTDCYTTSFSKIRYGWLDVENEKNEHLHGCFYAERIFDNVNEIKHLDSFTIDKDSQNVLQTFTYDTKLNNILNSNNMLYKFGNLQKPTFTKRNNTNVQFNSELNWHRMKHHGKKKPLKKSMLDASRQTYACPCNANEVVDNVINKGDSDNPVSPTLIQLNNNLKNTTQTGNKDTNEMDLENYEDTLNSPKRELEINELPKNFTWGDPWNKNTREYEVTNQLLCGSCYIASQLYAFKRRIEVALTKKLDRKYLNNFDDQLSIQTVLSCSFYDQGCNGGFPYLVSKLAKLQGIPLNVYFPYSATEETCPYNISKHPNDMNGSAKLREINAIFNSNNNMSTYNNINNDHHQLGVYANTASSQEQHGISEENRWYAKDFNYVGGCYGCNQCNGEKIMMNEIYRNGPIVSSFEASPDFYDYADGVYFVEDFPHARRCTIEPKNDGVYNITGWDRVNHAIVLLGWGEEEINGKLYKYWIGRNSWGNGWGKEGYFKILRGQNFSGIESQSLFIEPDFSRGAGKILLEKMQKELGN

Point of comparison: `CCCc1ccc(S(=O)(=O)NCCc2ccncc2)cc1`, “% Inhibition @ 10 uM” value -3.49%. Against it:
- COc1ccc(C(=O)NC2(C(F)(F)F)C(=O)N(Cc3ccccc3)C3=C2C(=O)CC(C)(C)C3)cc1 (stereo not shown) — higher, 3.54%
- COc1cc(C2C3=C(O)CCCC3=NC3=C2C(=O)CCC3)cc(Br)c1OC (stereo not shown) — lower, -4.4%
- Cc1cc(C)c(C)c(OCCCCCCN2CCOCC2)c1 — higher, 1.83%
- COc1ccc(NC(=O)C2CC2)c2ncccc12 — higher, -3.09%
- CSc1ccc(S(=O)(=O)NCc2ccncc2)cc1 — higher, 18.3%
- CC(NC(=O)c1ccccc1)c1ccccc1 (stereo not shown) — lower, -6.25%
- Cc1cccc(/C=C2\Cc3ccccc3C2=O)c1 — higher, 1.83%
- Cc1ccc(SCCNC(=O)CN2C(=O)c3ccccc3S2(=O)=O)cc1 — lower, -5.07%
- CCC(C)c1ccccc1NS(=O)(=O)c1cccc2cccnc12 (stereo not shown) — higher, -2.17%
- CCOc1ccccc1N1CCN(Cc2ccc(Br)o2)CC1 — lower, -4.61%
- O=c1sc2ccccc2n1CN1CCOCC1 — higher, 1.91%
- CCC(CC)NC(=O)c1cccc(NC(=O)C(C)C)c1 — lower, -13%
- c1ccc(-c2[nH]nc3ccccc23)cc1 — higher, -1.99%
- O=C(NCCCCc1ccccc1)C(=O)NCC1CCCO1 (stereo not shown) — higher, 0.0719%
- COc1ccc(NC(=O)c2ccc(S(=O)(=O)N(C)C)cc2)c2ccccc12 — higher, 3.35%
- Cc1cc2ccccc2n1CCNC(=O)C(C)Oc1ccccc1 (stereo not shown) — lower, -8.91%
- CC(C)CC(C(=O)NCC1CCCO1)N1C(=O)c2cc(Cl)c(Cl)cc2C1=O (stereo not shown) — higher, 4.25%
- Cc1c(-c2ccc(F)cc2)nc(N)c(C#N)c1-c1cccs1 — higher, -1.33%
- COCc1cc(C)nc2sc3c(c12)NC(c1ccco1)N(Cc1ccccc1)C3=O (stereo not shown) — lower, -4.28%
- O=C1C2C3C=CC(C3)C2C(=O)N1c1cccc(N2C(=O)C3C4C=CC(C4)C3C2=O)n1 (stereo not shown) — higher, 4.77%
- CC(C)CCn1c(=O)[nH]c2ncccc2c1=O — higher, 4.88%
- Cc1cc(C(=O)N2CCC(C)CC2)on1 — higher, -3.45%
- COc1ccc(-c2c3c(nc4sc(C#N)c(N)c24)C(=O)c2ccccc2-3)cc1 — higher, 7.19%
- CCOc1ccc(C2=NN(c3ccccc3F)C(c3cccs3)C2)cc1 (stereo not shown) — higher, 0.827%
- CC1CCC(C(C)C)C(OC(=O)NC(=O)C(F)(F)F)C1 (stereo not shown) — lower, -3.64%
- CCOc1cccc(C(=O)Nc2ccc(N3CCN(S(C)(=O)=O)CC3)cc2)c1 — higher, -0.519%
- CCc1ccc(C(=O)Nc2cc(C)ccc2C)s1 — higher, 1.8%
- CC(C)c1ccc(NC(=O)C(c2ccccc2)c2ccccc2)cc1 — higher, -0.127%
- COc1ccccc1-c1ccc(C=C2C(=O)OC(C)(C)OC2=O)o1 — higher, -1.93%
- CCN(CC)C(=O)c1sc(NC(=O)c2ccc(OC)cc2OC)c(C#N)c1C — lower, -4.41%
- Fc1ccc(CN2CCN(c3cccc(Cl)c3)CC2)c(F)c1 — lower, -7.49%
- O=C(O)c1cnc2sccn2c1=O — higher, 3.27%
- CCN(CC)CCCOc1ccc(Cl)c(C)c1 — higher, 2.16%
- COc1ccccc1CNC(=O)CSc1ccc(C)cc1 — higher, 3.84%
- COc1ccc(C2C(C#N)=C(N)Oc3[nH]nc(-c4ccc(Br)cc4)c32)cc1OC (stereo not shown) — higher, 1.35%
- O=C(CCCC(=O)Nc1ccc(F)c(Cl)c1)Nc1ccc(F)c(Cl)c1 — higher, 1.57%
- CC(=O)Nc1cccc(-c2cn3ccccc3n2)c1 — higher, -1.82%
- CCc1nn(C(C)C(=O)NCCc2ccccc2)c(=O)c2cc3occc3n12 (stereo not shown) — higher, 1.38%
- Cc1nc(OCc2ccccc2)c2sc3nc4c(cc3c2n1)COC(C)(C)C4 — higher, 14%
- CCCSc1nc(O)cc(=O)n1CC — lower, -6.12%
- CCOc1ccc(NC(=O)CSCc2ccc(Br)cc2)cc1 — higher, 2.01%
- COc1cccc(C2C3=C(O)CC(C)(C)CC3=Nc3nc(SCCN4CCOCC4)nc(O)c32)c1 (stereo not shown) — higher, 1.02%
- Cc1cccc(CN2CCC(CNC(=O)C3c4ccccc4C(=O)N(C)C3c3cccs3)CC2)c1 (stereo not shown) — lower, -4.8%
- Cc1oc(-c2ccccc2F)nc1CS(=O)(=O)CC(=O)NC1CCCC(C)C1C (stereo not shown) — higher, -0.138%
- O=C(c1cc(-c2ccc(Cl)c(Cl)c2)on1)N1CCCCCC1 — lower, -7.85%
- CCn1c2ccccc2c2cc(CNc3cccc(F)c3)ccc21 — higher, -1.81%
- O=S(=O)(c1ccccc1)n1nc(-c2ccco2)nc1NCc1ccccc1Cl — higher, 2.21%
- Cc1ccc(NC(=O)CCCC(=O)Nc2ccc(C)c(C)c2)cc1C — higher, 1.37%
- N#C/C(=C\c1ccco1)c1nc(-c2ccccc2)cs1 — higher, 1.08%
- CCOCCCNC(=O)Cn1nc(Cc2cccnc2)c2ccccc2c1=O — higher, -2.92%
- CCOC(=O)N1CCN(S(=O)(=O)c2ccc(C)c(C)c2C)CC1 — higher, -1.84%
- CN1CCN(c2nn3nnnc3c3ccccc23)CC1 — higher, 3.87%
- CCN(C(=O)c1cc([N+](=O)[O-])ccc1Cl)c1ccccc1 — higher, -1.86%
- Brc1cccc(-c2nnc(CN3CCOCC3)o2)c1 — higher, 1.49%
- O=C(O)CCS(=O)(=O)c1ccc2nc(O)oc2c1 — lower, -7.66%
- CCCN(CCO)Cc1ccccn1 — higher, -0.446%
- O=C(O)/C(=N\O)c1ccc(CCc2ccccc2)s1 — higher, 3.25%
- CCN(CC)CC(=O)Nc1ccc(Br)cc1C(=O)c1ccccc1 — lower, -3.76%
- COc1ccc(C2C(C(=O)c3ccc(C)cc3)=C(O)C(=O)N2CC(C)C)c(OC)c1 (stereo not shown) — higher, 0.408%
- O=C(O)C1CC(O)CN1S(=O)(=O)c1cccc2nsnc12 (stereo not shown) — higher, -2.17%
- O=C(c1ccc(CN2CCOCC2)o1)C(F)(F)F — higher, -2.48%
- CCC(C)C(/N=C/C1=C(O)OC(C)(C)OC1=O)C(=O)O (stereo not shown) — higher, -1.47%
- COc1ccc(-c2cc(C(F)(F)F)nc(SCC(=O)Nc3cc(C)on3)n2)cc1OC — higher, 4.08%
- Cc1ccc(S(=O)(=O)N(CC(=O)NCc2ccccn2)c2ccccc2)cc1 — higher, -0.796%
- COc1ccccc1C(=O)N1CCN(c2ccc(N3CCOCC3)nn2)CC1 — lower, -5.25%
- CCCN1CCC(NC(Cc2ccccc2)c2ccccc2)CC1 (stereo not shown) — higher, 1.88%
- COCCCN(Cc1cccs1)S(=O)(=O)c1csc(C(N)=O)c1 — higher, -1.23%
- CCOC(=O)c1cn(C)c(=O)c2ccccc12 — higher, -3.31%
- Sc1nc2ccccc2n2cnnc12 — lower, -4.76%
- CC(=O)C1=C(C)NC(C)=C(C(C)=O)C1c1cccs1 — higher, -1.2%
- CCOc1cc2c(cc1OCC)C1C(C(=O)NCc3cccnc3)c3ccccc3C(=O)N1CC2 (stereo not shown) — higher, 2.97%
- O=C(O)CCC(=O)N1N=C(c2ccccc2)CC1c1ccc2c(c1)OCO2 (stereo not shown) — higher, 0.361%
- Cc1noc(/C=C/N(C)C)c1S(=O)(=O)N1CCCC(C(=O)NCc2cccs2)C1 (stereo not shown) — lower, -6.52%
- CC(c1ccccc1)N1C(=O)CN(C2CCCCCC2)C(=O)C1c1ccccc1F (stereo not shown) — lower, -7.85%
- CCc1c(C)c2ccc3c(c2oc1=O)CN(c1cccc(C)n1)CO3 — higher, 5.1%
- O=C(O)C1C2CCC(C2)C1C(=O)NCC1CCCO1 (stereo not shown) — higher, -2.76%
- O=C(CCCc1c[nH]c2ccccc12)NC1CC1 — higher, -0.736%
- COC(=O)c1nnn(-c2cc(C)ccc2OC)c1N — higher, 1.76%
- Cc1nc2sc3c(NCC4CCCO4)ncnc3c2c2c1COC(C)(C)C2 (stereo not shown) — higher, 0.415%
- CCOc1ccccc1/N=C(\C)C1=C(O)c2ccccc2C1=O — higher, -1.07%
- CS(=O)(=O)N1CCN(Cc2ccccc2C(F)(F)F)CC1 — higher, 1.81%
- CCOc1ccc(/C=c2\sc3nc(-c4ccccc4OC)nn3c2=O)cc1OC — lower, -6.78%
- Cc1cc(OCC(=O)N(C)C)c2c(-c3ccccc3)cc(=O)oc2c1 — higher, -1.6%
- CCN(CC)CCCN(C)C(=O)Nc1cn(CC(C)C)c(=O)c2ccccc12 — lower, -3.83%
- Cc1noc2ncn(CC(=O)N3CCC4(CC3)OCCO4)c(=O)c12 — lower, -4.59%
- CCOc1ccccc1C(=O)Nc1cccc(OC)c1 — higher, 2.22%
- COc1cccc(CN2CCN(C(=O)c3ccc(F)cc3)CC2)c1 — lower, -3.6%
- CC(CNC(=O)CCc1nnc2n(Cc3ccccc3Cl)c(=O)c3ccccc3n12)c1ccccc1 (stereo not shown) — higher, -0.692%
- CN(C(=O)c1ccccc1N)C1CCCCC1 — higher, -3.33%
- CCn1c(SCC(N)=O)nnc1-c1nonc1N — higher, 2.62%
- Cc1nc2c(-c3ccc(F)cc3)c(C)nn2c(C)c1CCC(=O)NC(C)c1ccccc1 (stereo not shown) — higher, -2.25%
- CCN(CC)c1nc2c(c(=O)n(C)c(=O)n2C)n1CC(=O)c1ccc(Br)cc1 — higher, 0.475%
- O=C(NC(c1ccccc1)c1c(O)ccc2ccccc12)c1ccco1 (stereo not shown) — higher, 5.7%
- COc1cc(/C=C2\C(=O)NC(=O)N(Cc3ccc(F)cc3)C2=O)ccc1O — higher, 3.95%
- COc1cc2c(cc1OC)C(C)N(C(=O)c1cc3c(s1)-c1ccccc1OC3)CC2 (stereo not shown) — higher, 3.45%
- CC(=O)NS(=O)(=O)c1ccc(NC(=O)Cc2cccc3ccccc23)cc1 — higher, -1.61%
- Cc1nc2cc(-c3ccccc3)nn2c(C)c1CC(=O)NCCCc1ccccc1 — higher, -2.45%
- O=C(CNS(=O)(=O)c1ccc(Cl)cc1)Nc1ccc2c(c1)OCCO2 — higher, 4.5%
- N#C/C(=C\c1ccc(Cl)cc1Cl)c1nc(-c2cc3cc(Br)ccc3oc2=O)cs1 — higher, 5.64%
- O=C(Cn1ncc2c3ccccc3nc-2c1O)NCCCN(Cc1ccco1)C1CCCC1 — lower, -4.51%
- Nc1sc2c(c1C(=O)NCCc1ccccc1)CCC2 — higher, 2.01%

In the case of `Cc1cc(C)nc(-n2/c(=N/c3ccccc3)cc(O)c3c(C)n(-c4ccccc4)c(=O)nc32)n1`, the “% Inhibition @ 10 uM” value is reported as -3.46% and -6.99%.
